# Source: the supplement of paper PMC4466236
# The full ranking holds about 33,000 sequences; the median of “E-score (dimensionless, -0.5 to 0.5)” is about -0.058, and the highest 2% start at about 0.35. Some of the results follow.
# System: MvaT
# Assay: PBM 8-mer E-score (mean of HK and ME arrays) (E-score (dimensionless, -0.5 to 0.5)); higher = stronger relative binding preference; most listed sequences are background and not binding sites
# Description: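 Protein binding microarray: GST-tagged full-length MvaT (P. aeruginosa PAO1) bound to two universal double-stranded 60-mer arrays (ME and HK), each with a constant 25-mer primer and a variable 35-mer region covering all 8-mers. The 8-mer E-score (rank-based, range -0.5 to 0.5, >0.45 = specific binding) is the mean of the two arrays.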
row,Sequence,PBM 8-mer E-score
1,CGATGAGC,-0.259
2,AATAGTAC,0.207
3,ATCGGGCG,-0.0541
4,ATGCGCAT,0.102
5,GCGTGAAC,-0.168
6,AAGGTGGC,0.0712
7,CTATGAAG,-0.0683
8,CGTTTGAA,0.0915
9,CGTACGAG,-0.177
10,CCCCGGGC,-0.329
11,CTGTGGAC,-0.212
12,CAAGGCAC,-0.14
13,GTAGTTCA,0.052
14,AAGCACTG,-0.186
15,TATAAGCA,0.317
16,GTACCTGA,-0.0333
17,AGATATTG,0.191
18,AACTCCTA,0.162
19,CCGTTTGC,-0.0761
20,GAGGACTC,-0.279
21,CCAGCTTA,-0.0676
22,AATATAAG,0.351
23,GGCAGAGA,-0.15
24,CACCGGCG,-0.229
25,AATACTGT,0.215

row,Sequence,PBM 8-mer E-score
1,AACCTGAT,0.0816
2,AACTGCAT,-0.0229
3,TGACGCAA,-0.0302
4,ACGAATCA,-0.0134
5,CGGCCATC,-0.331
6,AATATGCT,0.168
7,CAATCCTC,-0.18
8,AGTGGGGG,-0.209
9,AGAAGTTG,0.212
10,ATGGAGCC,-0.112
11,TAATGTGA,0.213
12,ATCAGGAT,-0.129
13,CTTCAAAG,0.0135
14,CAGTCCAC,-0.134
15,CCAGGTAG,-0.0622
16,CGACGTAG,-0.247
17,ATGTACAG,0.197
18,CAATTCGA,-0.0452
19,GCTTATCC,-0.143
20,ATCCGGTA,-0.0602
21,AGAATTTC,0.122
22,ATGTCCAG,-0.103
23,AGAGATGC,-0.101
24,ATCCGGAT,-0.0634
25,ACATCAAA,0.0331

row,Sequence,PBM 8-mer E-score
1,CCAAAGGA,-0.213
2,ACCGTACG,-0.216
3,GGATCGAC,-0.378
4,ACAACCCT,0.0272
5,ATTTGAAA,0.214
6,CTACCAAC,0.0568
7,ACTCAACA,0.0764
8,GGACCGCA,-0.309
9,CGTGAGGA,-0.241
10,AGACGCAG,-0.221
11,CTTACCGC,-0.0868
12,GCCAATGA,-0.169
13,GACGCTGC,-0.183
14,AGTTACCC,0.0919
15,ACTAAAGA,0.173
16,CAGTTTTA,0.196
17,ACCCTAGA,-0.125
18,CGTATGAC,-0.15
19,ATAATCAG,0.229
20,CATGGGTA,-0.0822
21,GATGAAGC,-0.136
22,GGCTCGAA,-0.186
23,TCTACCCA,0.0193
24,GAGGACCC,-0.181
25,GTCTGGTA,-0.11

row,Sequence,PBM 8-mer E-score
1,ATTGACAA,0.263
2,TATACCGA,0.321
3,CCAGCAAA,-0.165
4,AAATTTGC,0.134
5,AAATACTA,0.383
6,CACGTAAG,-0.118
7,CCGCTGTC,-0.107
8,AAGCCTGC,-0.198
9,CGAGTCCC,-0.298
10,ACATTGTC,0.116
11,AAACCCAC,0.0587
12,ACCTAGCG,-0.205
13,ATAGCTGG,-0.188
14,AGGGGCGG,-0.27
15,CAATAGGG,0.0309
16,CACGTGCG,-0.179
17,CACCTCCA,-0.174
18,CTTGTTGC,0.143
19,ATTAGCCG,0.0563
20,TAACAACA,0.223
21,ACCATAGC,-0.041
22,AAAAGCAC,0.055
23,ACACGTTA,0.0219
24,AAAAATTC,0.161
25,AAGCCAAG,-0.0756

row,Sequence,PBM 8-mer E-score
1,CATCGATG,-0.0261
2,ATAGTACG,0.146
3,CAATGATC,0.048
4,ATTGGACA,0.0416
5,CACACGGA,-0.149
6,GGGCTACC,-0.255
7,CTGCGACA,-0.24
8,CCTTACCG,-0.129
9,ATATTGTA,0.376
10,CTCAAGAG,-0.286
11,AGCTCTAA,-0.0435
12,AGCATGCA,-0.2
13,CACTAATA,0.323
14,AGACACCT,-0.162
15,ATAGTTAG,0.266
16,TAGGATGA,-0.13
17,GTATTGTA,0.248
18,ATGTAGAC,0.106
19,ACCGCAGC,-0.137
20,ACGCAGAA,-0.113
21,ACAATTGA,0.193
22,GTTTAAGA,0.246
23,CCCGCTCG,-0.242
24,AGTTTGAA,0.265
25,CTCTCAGC,-0.286

row,Sequence,PBM 8-mer E-score
1,AGATTAAC,0.173
2,ATACCAGG,-0.0238
3,CCACGGGC,-0.301
4,AACAGGAA,0.107
5,CCAGTCCA,-0.13
6,CCCAAATC,-0.0884
7,CATCTGTC,-0.123
8,AGCTGCAG,-0.111
9,GTTTTAGA,0.142
10,CCTAAAGG,-0.187
11,CCAGGATC,-0.19
12,ATCACTCG,0.0455
13,AGCAGGTC,-0.147
14,AGACTGCA,-0.0965
15,CACTAGGA,-0.133
16,TATTGGCA,0.277
17,AAGCACTA,0.0275
18,TCGCCCCA,-0.0873
19,AACTACGA,0.138
20,GCTCCTTA,-0.053
21,CTAACACA,0.105
22,CCCGAGCC,-0.268
23,CCACTACC,-0.221
24,GGAGCGCC,-0.354
25,CCTCCGAC,-0.219

row,Sequence,PBM 8-mer E-score
1,CTATTATA,0.44
2,ATGTTAGA,0.236
3,CAACTTTC,0.243
4,GAGAGGTA,-0.112
5,CGGTGCAG,-0.202
6,ACCTCTAC,-0.178
7,GGACCCCA,-0.231
8,CTCTTTGC,0.0154
9,AACAGTTC,0.0419
10,GTTAACAA,0.296
11,ATAGGAGC,-0.0152
12,AATTTCGA,0.296
13,GAAGAGAA,-0.104
14,AAGACGGA,-0.128
15,TATCTGAA,0.238
16,CTCGACCC,-0.168
17,ATAGGCTA,0.0423
18,CCTAATTC,0.0847
19,TGCAGGAA,-0.0725
20,AAAAACCG,0.0602
21,GTAGATTA,0.229
22,CTAGACAC,-0.199
23,CGATGAAA,-0.0223
24,CAAATCAC,0.135
25,AGATGCCT,-0.192

row,Sequence,PBM 8-mer E-score
1,AGTAAACG,0.162
2,CATATGGG,-0.151
3,CCGATTAA,0.227
4,GCCGTCCC,-0.224
5,GTCGCACA,-0.00327
6,GCGCCAAA,0.104
7,CCTCGGAC,-0.169
8,ACTCGACG,-0.111
9,GCCTCCGC,-0.24
10,ACATCGTC,-0.0722
11,CATTGTCC,0.024
12,AATACTTC,0.238
13,CGTAACCC,-0.135
14,GCTCCGCC,-0.241
15,ACTGTTAG,0.0818
16,AGTCTACC,-0.177
17,AGGGACCA,-0.257
18,GCATAGAC,-0.148
19,AGAAACAT,0.251
20,ACGTTCGG,-0.0975
21,GCACGAGC,-0.272
22,ACAAGTGA,-0.00345
23,CGAAGTGA,-0.168
24,GACACCCC,-0.249
25,AGGACAGC,-0.196

row,Sequence,PBM 8-mer E-score
1,CACTAACC,0.0207
2,AGCGCGCC,-0.105
3,GCGTACTA,-0.0183
4,ATGAGCAA,0.00257
5,AAGACGAT,0.0161
6,CCAACGGA,-0.179
7,ACCGCGTA,-0.0828
8,AACGATCT,-0.158
9,ATACAGGA,0.138
10,GCTACTCA,-0.264
11,AGCGCACT,-0.175
12,ACCATCGG,-0.298
13,CTCAACTC,-0.139
14,CCGGTCAC,-0.249
15,AGAAACTC,-0.0284
16,AAAGGGAA,-0.0681
17,GGGGGAAA,-0.135
18,CTAAATGC,0.0441
19,CAAATACG,0.15
20,CGGGGTTC,-0.313
21,AACGAATG,0.0643
22,CAGTATAC,0.221
23,CGCCGAGC,-0.18
24,CCTTGTGC,-0.146
25,TGCCCCAA,-0.118

row,Sequence,PBM 8-mer E-score
1,CGTAGACA,-0.256
2,GAGGTTAC,-0.0113
3,GAAAATAC,0.134
4,GGAGCCCC,-0.366
5,CAAAGAGC,-0.111
6,CTTTTCAA,0.0875
7,ATTCAGCA,0.154
8,GGCGCCCA,-0.152
9,CTGGTGGA,-0.309
10,AAATCATG,-0.0303
11,CCGTAAAG,-0.061
12,TCCCCCGA,-0.189
13,CATGTCAC,0.08
14,ATACTGAG,0.167
15,AATCGATG,0.174
16,AAAGGTAC,-0.00283
17,ATGCGAAG,-0.0255
18,CCAAAATA,0.251
19,GATGGTTA,0.054
20,CAGACAAG,-0.0147
21,AAATCGAA,0.156
22,CCAGGAGG,-0.379
23,CAGGCCAG,-0.234
24,AGGTTGCA,-0.146
25,ATCCGAGG,-0.119

row,Sequence,PBM 8-mer E-score
1,CAACAGAA,-0.0613
2,ATTAGAAG,0.239
3,CTTAGTGA,-0.0659
4,AGACCATA,0.00218
5,CGAGCCGA,-0.276
6,ATGACTCC,-0.0824
7,CTCGGGCA,-0.195
8,AAGGGCCG,-0.17
9,GGTACCCA,-0.264
10,CCGCTACA,-0.13
11,ATTACCAA,0.223
12,AACATGCC,0.0493
13,GCAAGTCC,-0.0911
14,GACATGGA,-0.0841
15,CCTGGAGA,-0.164
16,GATGTGAC,-0.139
17,GATCGATC,0.0487
18,CACTCGAG,-0.162
19,CCTCCTCC,-0.302
20,CGGTGGAC,-0.18
21,GCCAGCCA,-0.194
22,ATGTACCA,0.189
23,CAACTACA,0.221
24,CCCTGGGA,-0.317
25,GACTTGAA,0.15

row,Sequence,PBM 8-mer E-score
1,CCCTGAAG,-0.186
2,AGAAACCC,-0.162
3,TAATGTAA,0.373
4,AGCAGCCA,-0.164
5,CAAGAAAA,-0.021
6,TACCCGCA,-0.0359
7,CAATGGAG,-0.228
8,AGTCACCG,-0.163
9,GCTTACAA,0.0244
10,AGCCTCGA,-0.127
11,AAAGGGAT,-0.00372
12,AGAAAGCC,-0.178
13,ACCCGCGG,-0.205
14,CTCTCCTC,-0.213
15,CGTTCTAC,-0.00845
16,ATATACTC,0.364
17,CACTATAA,0.312
18,AAGCCGGC,-0.227
19,AGCGTATA,0.177
20,GGAACCAC,-0.199
21,CATCCAGG,-0.18
22,CCAAGGTC,-0.214
23,GCGGTCTA,-0.0122
24,AGCAATTG,0.159
25,ACGCAGCT,-0.191

row,Sequence,PBM 8-mer E-score
1,CGCTGATC,-0.18
2,GTGACCTA,-0.228
3,AAATCCGA,-0.15
4,CGTGGTAG,-0.127
5,AGCTCAGG,-0.234
6,AGTTTTGG,0.0675
7,CCTTGTAC,-0.0591
8,CCCCATAC,-0.233
9,CGCTTAAG,0.0812
10,ATCTGATC,-0.129
11,GGTGAATA,0.189
12,AAACAGAC,0.185
13,ACGGACTA,0.0336
14,CCGTCGCC,-0.325
15,TAACCGAA,0.16
16,ATCAAAAT,0.0868
17,GGTAGGAA,-0.129
18,AACGTTCA,-0.138
19,CCAAGAAA,0.0478
20,TGCACGCA,-0.248
21,AATACTAA,0.356
22,AGGGCATC,-0.273
23,CATGCGTA,-0.173
24,GAATGCAA,0.00611
25,ACCGGTAC,-0.109

row,Sequence,PBM 8-mer E-score
1,AGACCAAG,-0.0618
2,AGATAGGG,-0.0696
3,CGATAAGC,-0.0955
4,TGGAGGAA,-0.289
5,AAAAGTCC,-0.0566
6,AGTCCACT,-0.0256
7,AAGAAGGT,-0.0662
8,CTACCGCC,-0.106
9,CTGCCAAA,-0.146
10,CGATTCTA,0.00752
11,AAGTCATC,-0.141
12,AGAAGGCC,-0.303
13,AAGAACGG,-0.0359
14,TCTAAAGA,0.188
15,CCTTAGCC,-0.131
16,CGCGAGGC,-0.195
17,AATAGATC,0.103
18,AACCTTAT,0.0878
19,ACTCCGGA,-0.0445
